{"source": "ChEMBL document CHEMBL1157539", "about": "“Thousands of chemical starting points for antimalarial lead identification” (Nature, 2010)", "note": "The full ranking holds about 13,000 compounds; the median of “IFI” is about 4, and the highest 2% start at about 17. Some of the results follow.", "data": [{"assay": "GSK_TCMDC: Inhibition Frequency Index (IFI). The number of non-kinase HTS assays where a compound showed > 50 % inhibition, expressed as a percentage of the number of such assays in which the compound was tested (-0 is zero)", "assay_type": "functional", "units": {"IFI": "%"}, "values": [{"compound": "CCN1CCN(CCCNc2ccnc3cc(Cl)ccc23)CC1", "IFI": -0}, {"compound": "O=C(CSc1nc(-c2ccccc2Cl)ns1)Nc1cccc(Cl)c1", "IFI": 7.14}, {"compound": "CCOc1ccc(-c2nonc2NC(=O)c2ccc(F)cc2)cc1OCC", "IFI": -0}, {"compound": "Cc1ccc(C2CCN(CCCCNC(=O)c3ccc(-c4ccc(C#N)cc4)cc3)CC2)c(O)c1", "IFI": 7.48}, {"compound": "NC(=O)c1ccc(-c2ccc3ccnc(N)c3c2)cc1", "IFI": 5.62}, {"compound": "COc1ccccc1NS(=O)(=O)c1cc(C(=O)Nc2ccc(N3CCOCC3)c(S(=O)(=O)Nc3ccccc3Cl)c2)ccc1Cl", "IFI": 1.43}, {"compound": "O=C(Cc1cccc(O)c1)Nc1ccc(-c2cccc(-c3nc4cc(C(F)(F)F)ccc4[nH]3)c2)cc1", "IFI": 8.93}, {"compound": "Clc1ccc(-c2cc(-c3csc(NCCN4CCOCC4)n3)on2)c(Cl)c1", "IFI": 10.8}, {"compound": "Cc1ccc2c(c1[N+](=O)[O-])N=NCC2Oc1ccccc1", "note": "(stereo not drawn)", "IFI": 0.74}, {"compound": "COc1ccc2c(O)c(C3CCC(c4ccc(Cl)cc4)CC3)c(C)nc2c1", "note": "(stereo not drawn)", "IFI": 2.24}, {"compound": "CC(C)CNCc1cccc(-c2cccc(CNCCCN3CCN(C)CC3)c2)c1", "IFI": 1.46}, {"compound": "O=c1cc(NCCCNCc2ccc(Cl)c(Cl)c2)[nH]c2ccc(Oc3ccccc3)cc12", "IFI": 2.78}, {"compound": "COc1ccc(C(F)(F)F)cc1N1CCN(CCCCNC(=O)c2ccc(NC(=O)c3ccc(Cl)cc3)cc2)CC1", "IFI": 1.8}, {"compound": "CCOC(=O)c1c(CSc2ccccc2)oc2cc(CN(C)C)c(O)c(Cl)c12", "IFI": 1.55}, {"compound": "CN(Cc1ccccc1)C1CCCN(c2cc(NC(=O)c3cccs3)ccn2)C1", "note": "(stereo not drawn)", "IFI": 2.7}, {"compound": "Cc1ccc(CNC(=N)NC(=O)c2nc(Cl)c(NCc3ccc(Cl)cc3)nc2N)c(C)c1", "IFI": 5.56}, {"compound": "COc1cccc2c(Oc3ccccc3C)ccnc12", "IFI": 2.99}, {"compound": "CCOc1ccc2c(=NN=Cc3cccc(Cl)c3)cc(C)[nH]c2c1", "IFI": 2.03}, {"compound": "Cc1cnc2ccc(NS(=O)(=O)c3sc4ccc(Cl)cc4c3C)cc2c1N1CCNCC1", "IFI": 1.4}, {"compound": "CN(C)CCNCc1cccc(-c2ccc3c(Nc4ccc(F)cc4Cl)ccnc3c2)c1", "IFI": 0.74}, {"compound": "CCOc1ccc(NC(=O)c2cn3nc(-c4ccc(OCC)cc4)cc3nc2C2CCNCC2)cc1", "IFI": 6.76}, {"compound": "O=C(Nc1ccccc1)N1CCOC(CCN2CCC(F)(F)CC2)(c2ccc(Cl)c(Cl)c2)C1", "note": "(stereo not drawn)", "IFI": 5.76}, {"compound": "O=C(Nc1cccc(CN2CCCN(Cc3ccc4c(c3)OCO4)CC2)c1)c1ccc2ccccc2c1", "IFI": 4.76}, {"compound": "COCCNCc1nc(-c2ccc3c(Nc4ccc(F)c(O)c4)ccnc3c2)cs1", "IFI": 4.48}, {"compound": "CCCCc1cc(NC2CCN(C)CC2)nc(Nc2ccccc2)n1", "IFI": 5.56}, {"compound": "O=C(Cn1c(CCc2cccc(F)c2F)nc(=O)c2cccnc21)N(Cc1ccc(-c2ccc(C(F)(F)F)cc2)cc1)C1CCN(C2CCOCC2)CC1", "IFI": 15.7}, {"compound": "CCN(CC)CCNc1nc(C=Cc2ccc(Cl)cc2)nc2cc3ccccc3cc12", "IFI": 9.46}, {"compound": "CC(C)c1ccc(CN2CCC(NC(=O)c3ccc(-c4ccccc4F)s3)CC2)cc1", "IFI": 15.5}, {"compound": "C=C(C)Cn1cc(C2CCN(CCN3CCC(CNC(=O)c4ccc(-c5ccc(C#N)cc5)cc4)CC3)CC2)c2ccccc21", "IFI": 10.9}, {"compound": "O=C(NCC1CCC(C(=O)NCCN2CCCCC2)CC1)c1ccc(O)c(-c2ccc(Cl)c(Cl)c2)c1", "note": "(stereo not drawn)", "IFI": 0.76}, {"compound": "CCOc1cc(C)ccc1NC1CCN(CCCCNC(=O)c2ccc(NC(=O)c3ccc(Cl)cc3)cc2)CC1", "IFI": 5.31}, {"compound": "CN1CCCN(Cc2ccc(-c3ccc(NC(=O)c4cccc(Cl)c4)cc3)cc2)CC1", "IFI": 8.91}, {"compound": "COc1ccc(/C=C/C(=O)N2CCc3cc4nccc(N5CCN6CCC[C@H]6C5)c4cc32)cc1", "IFI": 4.48}, {"compound": "Cc1cc(-c2c[nH]c3ncc(-c4cccc5ncccc45)cc23)ccc1C(=O)O", "IFI": 2.8}, {"compound": "Cc1[nH]cc(Br)c(=O)c1-c1ccc(Oc2ccccc2)cc1", "IFI": 1.83}, {"compound": "NC(=O)C1CCN(Cc2cccc(-c3cccc(-c4nc5cc(C(F)(F)F)ccc5[nH]4)c3)c2)CC1", "IFI": 4.81}, {"compound": "CCOC(=O)c1cnc2c(C(F)(F)F)cccc2c1Nc1ccc(O)cc1", "IFI": 10}, {"compound": "COc1cc(Cc2cnc(N)nc2N)cc(OC)c1OCCCCCN1C(=O)c2ccccc2C1=O", "IFI": 4.29}, {"compound": "Cn1nccc1C(=O)NCCNCc1cccc(-c2ccc(-c3nc4ccccc4[nH]3)cc2)c1", "IFI": 2.94}, {"compound": "Clc1ccc(OCc2ccccc2)c(-c2nc(-c3nc4ncc(Br)cc4[nH]3)cs2)c1", "IFI": 1.32}, {"compound": "COc1ccccc1CCNC(=O)c1cc(Br)cc(N2CCN(c3ccncc3)CC2)c1", "IFI": 6.9}, {"compound": "Cc1cc(F)ccc1-c1nc(N(C)CCN(C)C(=O)N(C)c2ccccc2)nc2c1ccc(=O)n2-c1c(F)cccc1F", "IFI": 7.91}, {"compound": "COc1cccc2c(NN=Cc3ccccc3F)ccnc12", "IFI": 3.65}, {"compound": "CCN(CC)CCCOC(=O)c1ccc2c(c1)-c1ccc(C(=O)OCCCN(CC)CC)c3cccc-2c13", "IFI": 3.68}, {"compound": "Cc1noc(C)c1-c1ccc2c(Nc3ccccc3C(C)(C)C)c(C(=O)NCc3ccc4c(c3)OCO4)cnc2c1", "IFI": 6.9}, {"compound": "O=C1c2ccccc2-n2c1nc1ccccc1c2=O", "IFI": 2.99}, {"compound": "Cc1cc(Cl)c(S(=O)(=O)N(C)c2ccccc2)cc1OCC(=O)NC1CCCCC1", "IFI": 1.79}, {"compound": "c1cncc(CCNCc2ccc(-c3ccc(CNC4Cc5ccccc5C4)cc3)cc2)c1", "IFI": 4.23}, {"compound": "Cc1cccc2nc(-c3ccc(-c4cccc(CNCc5cccc(N)c5)c4)cc3)[nH]c12", "IFI": 6.67}, {"compound": "COc1cc2nc(NCCc3cccc(Cl)c3)nc(NCc3ccccc3)c2cc1OC", "IFI": 17.1}, {"compound": "CCNc1cc(C(=O)N[C@@H](Cc2ccccc2)[C@H](O)CNC2(CC(C)C)CC2)cc(N2CCCCS2(=O)=O)c1", "IFI": 2.22}, {"compound": "Cc1cc(Oc2ccc(-n3ccnc3)cc2)nc(N2CCN(CCCN3CCCC3)CC2)n1", "IFI": 3.81}, {"compound": "Cc1cc(C)c(C(=O)Nc2n[nH]c3nnc(-c4cccc(F)c4F)cc23)c(C)c1", "IFI": -0}, {"compound": "CCc1cn2c3c(cc(C(=O)N[C@@H](Cc4cccc(F)c4)[C@H](O)CNC4CCCCC4)cc13)N(C)S(=O)(=O)CC2", "IFI": 2.94}, {"compound": "CC(=O)N(C)C1CCN(Cc2ccc(-c3cccc(-c4nc5cc(F)ccc5[nH]4)c3)cc2)C1", "note": "(stereo not drawn)", "IFI": 1.43}, {"compound": "CC1CCCCN1CCCNc1nc(NCc2ccccc2)c2ccccc2n1", "note": "(stereo not drawn)", "IFI": 5}, {"compound": "O=C(Nc1ccc(-c2cccc(-c3nc4cc(C(F)(F)F)ccc4[nH]3)c2)cc1)c1cccnc1", "IFI": 3.67}, {"compound": "NC(=O)c1cccc(C(=O)Nc2cccc(-c3ccc(-c4nc5cc(C(F)(F)F)ccc5[nH]4)cc3)c2)c1", "IFI": 6.67}]}]}
